This is one part of the list.
T1: UNK ZnF1-6 (called full-length) (human, UniProt Q9C0B0 30-357)
T1 sequence: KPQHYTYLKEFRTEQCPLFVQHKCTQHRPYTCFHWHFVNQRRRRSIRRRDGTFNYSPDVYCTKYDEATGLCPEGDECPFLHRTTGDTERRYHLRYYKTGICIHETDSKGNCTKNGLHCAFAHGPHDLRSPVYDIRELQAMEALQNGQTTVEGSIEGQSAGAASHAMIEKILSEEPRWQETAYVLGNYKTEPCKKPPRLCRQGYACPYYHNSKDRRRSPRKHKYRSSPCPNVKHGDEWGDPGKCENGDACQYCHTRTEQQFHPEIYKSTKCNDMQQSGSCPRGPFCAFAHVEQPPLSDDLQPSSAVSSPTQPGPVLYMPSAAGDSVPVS

B1: chr5:151662744:151662768:-|3pUTR|ENSG00000113140|msi1_unk|FALSE|overlapping (ssRNA)
RNA: GGGAGUUCUACAGUCCGACGAUCGGGGCUCUAGGGACUGCCAGGCUGUUUCAGCCAGGAAGGCCAAAAUCAAGAGUGAGAUGUAGAAAGUUGUAAAAUAGAAAAAGUGGAGUUGGUGAAUCGGUUGUUCUUUCCUCACAUUUGCAACAGAGGAUUGAGCAUCA
B2: chr10:110898111:110898227:+|3pUTR|ENSG00000150593|unk|total|mutant (ssRNA)
RNA: GGGAGUUCUACAGUCCGACGAUCAUAAGAACUCUUGCAGUCUCCGAUGUUAUAAAAAUAUAUAUCUGAAUUGUAAGAGUUGUCCGCACAAGUUUUUUUUUUUUUUUUUUUUAAGCACUUGUUUUGGGUACAAGGCAUUUCUGACAACAGAGGAUUGAGCAUCA
B3: chr12:76028505:76028606:-|3pUTR|ENSG00000139289|msi1|total|mutant (ssRNA)
RNA: GGGAGUUCUACAGUCCGACGAUCAAGUCUUGGUCAGUAUUUUUCCAGCAUUUAAAUUGAAACGGUCAGUAUCCGACCACUGCCCGGUUAUGCCGUCAAGAAAUAAAAACCGAAUUACAUGCUACAGAUGUCUUUAUUCUCCUUCAACAGAGGAUUGAGCAUCA
B4: chr1:93361585:93361687:+|3pUTR|ENSG00000117505|unk|total|mutant (ssRNA)
RNA: GGGAGUUCUACAGUCCGACGAUCUUUAACUUGCCGUUACCGUUUACUUAUUGUUUUCCGAAUUACUUUUACAUUUUCCCAACCCGAUGGCCCCGAGUCCAACAUUACCUUUUGAGAUGACAUUAUUGUCUCCAUAAUUGAGUGCAACAGAGGAUUGAGCAUCA
B5: ENSG00000136451:be:win_1351|CDS|ENSG00000136451|bound_else_gene|NA|bound_elsewhere_windowed (ssRNA)
RNA: GGGAGUUCUACAGUCCGACGAUCCCAUUAUCCAUGACCUCUCCUUUAACACUCACUACCCCAGUCAACCUCCCCACCCCCGUCACUGCCCCAGUGAAUAUAGCACACCCUGUCACCAUCACAUCUCCAAUGAAUCUACCCACACAACAGAGGAUUGAGCAUCA
B6: ENSG00000110321:stop:overlap|stop_codon|ENSG00000110321|stop_codon|NA|stop_codon (ssRNA)
RNA: GGGAGUUCUACAGUCCGACGAUCACAACUCCGCAAACGAAAAAGAACGACAUGAUGCAAUCUUCAGGAAAGUAAGAGGGAUCUAGGGGUGUUUAUUCCUGCUCCUAUGGCUCAAGGGAUGAGAAGUGACUUCUUUCUGGAGGGCAACAGAGGAUUGAGCAUCA
B7: chr3:23980279:23980388:+|3pUTR|ENSG00000174738|unk|FALSE|unique (ssRNA)
RNA: GGGAGUUCUACAGUCCGACGAUCUUUUUCUUUUCCAAUAUAAAGUUUGCUGAAUGUACAAGAAGAGUUUAUCACUUAGGAUAUAGAAUUUUUUUAGGGGUUGGGGGAGGGGAUCUGUUAGGAAACUGUUACCUAUAAACAAAGCAACAGAGGAUUGAGCAUCA
B8: chr4:87981664:87981765:+|CDS|ENSG00000118785|msi1|total|mutant (ssRNA)
RNA: GGGAGUUCUACAGUCCGACGAUCCACUGAUUUUCCCACGGACCUGCCAGCAACCGAAGUUUUCACUCCAGUUGUCCCCACAGCCGACACAUAUGAUGGCCGAGGUGACCGUGUGGUUUAUGGACUGAGGUCAAAAUCUAAGAACAACAGAGGAUUGAGCAUCA
B9: chr1:225496770:225496921:-|3pUTR|ENSG00000154380|msi1|FALSE|unique (ssRNA)
RNA: GGGAGUUCUACAGUCCGACGAUCUUUUUUAAUUGCAGACAGUAAUGCAUGUCACACUAAUAUGUAGUGGCCUUUUCAAGGCCUAGUCCCAGGGAAAACAUUUUGUAGAGUAUAGGGGAGUGGGAGGAAGGGGAGGAAUAAUUUCAACAGAGGAUUGAGCAUCA
B10: chr8:78602526:78602623:+|3pUTR|ENSG00000171033|msi1_unk|total|mutant (ssRNA)
RNA: GGGAGUUCUACAGUCCGACGAUCUUGUAUGUUGAUGAGUUGAUUAAGUCUAACAGAUUCAUCAAGACUCCAUUGCUUUAUUACCGAGACAUUUGAAAAUAUCCAUUAAUGUGAAUAUCACCUGAAUUCAGUCUGUUUGGUGUCCAACAGAGGAUUGAGCAUCA
B11: ENSG00000198589:be:win_1301|CDS|ENSG00000198589|bound_else_gene|NA|bound_elsewhere_windowed (ssRNA)
RNA: GGGAGUUCUACAGUCCGACGAUCCAUCUCCUAAGGACAACCCUUCAAUUUUUGUUCAUUCACCACAUGCACUCAUGCUCCAGGAUGUAAAGGCAGUUUUAACACAUUCCAUCCAAAGUGCAAUGCAUUCAAUUGGAGGAGUACCAACAGAGGAUUGAGCAUCA
B12: chr12:64421256:64421371:+|CDS|ENSG00000184575|unk|FALSE|unique (ssRNA)
RNA: GGGAGUUCUACAGUCCGACGAUCGUUGACUUCCUGGCCAGAUUUUCUAAGUUGGUAAAUGGAAUGGGACAGUCAUUGAUAGUUAGUUGGAGUAAAUUAAUUAAGAAUGGGGAUAUUAAGAAUGCUCAAGAGGCACUACAAGCUCAACAGAGGAUUGAGCAUCA
B13: chr3:186789481:186789582:+|3pUTR|ENSG00000156976|msi1_unk|total|mutant (ssRNA)
RNA: GGGAGUUCUACAGUCCGACGAUCUUGGGGUGGGUAUAAAAGAUGGGGUCUGUAAAAUCUUUCUUUCUCCGAAAUUUAUUUCCCCGUUCUGCCGAAAUGGUUGUAUCCGAUGUUCUCUAUCAUUUAAUAAUAUACUUGUGGACUCAACAGAGGAUUGAGCAUCA
B14: chr5:80437677:80437780:+|CDS|ENSG00000039319|unk|FALSE|unique (ssRNA)
RNA: GGGAGUUCUACAGUCCGACGAUCUUCCUUUCAGGAAGAUAAGACUGUUAUAAAACAAUCUGCACAAGAAGACUCAAAAAGUUUAGACCUUAAGGAUAAUGAUGUAAUCCAAGAUUCCUCUUCAGCUUUACAUGUUUCCAGUAACAACAGAGGAUUGAGCAUCA
B15: chr15:34980028:34980129:-|3pUTR|ENSG00000198146|msi1|FALSE|unique (ssRNA)
RNA: GGGAGUUCUACAGUCCGACGAUCGGUUCUGUUAUUUAAGCCUGUUCUAAGUUUGAUCAAAUGGCAAUGACUAGGUCUAGUUUUAGUUUUUAUUUUUGCAGGAGUCUAUUGCUAAAGAAUUUUAUUUUGAUGCUUGUUAAAUUUCAACAGAGGAUUGAGCAUCA
B16: chr1:149903635:149903737:-|3pUTR|ENSG00000159164|unk|FALSE|unique (ssRNA)
RNA: GGGAGUUCUACAGUCCGACGAUCGGCUGCUUUCUUUGGUGCCCUCCCCUCACCCCACUGUAGCUGUGACGUGUUGUAGUUUUUAGAUGUUUGUAAAAUGUUUAAAAAAAUGUUAAAAGGAAAAAAGUGAAAAUAACAAAAAAGCAACAGAGGAUUGAGCAUCA
B17: chr16:82148161:82148730:-|three_prime_utr|ENSG00000135698|control|control|control (ssRNA)
RNA: GGGAGUUCUACAGUCCGACGAUCCCAGGGGUGCUUGGUGGAAGUCAGCAGGGCAUCUGGAGCUCAUCCCAAUGGUGUCUCUAUAGUUAUUAAUACUGUAACGUUUACUUGUAAAGAGAUUAUCAUUUUAGAAACAUGCUGUUUCAACAGAGGAUUGAGCAUCA
B18: chr6:144852070:144852171:+|3pUTR|ENSG00000152818|unk|total|mutant (ssRNA)
RNA: GGGAGUUCUACAGUCCGACGAUCAAGUCCUUAACCGUUCUUGAAACUCCCCGUUGUUUUCUUGUUGAAAGCAGACACACAUUCCGUGCACGGCUUAUUUUACCUUUCGGGUGAAAGAUCAGAUGUUUUUAUACCCUUCACUUGCAACAGAGGAUUGAGCAUCA
B19: ENSG00000107863:be:win_4801|CDS|ENSG00000107863|bound_else_gene|NA|bound_elsewhere_windowed (ssRNA)
RNA: GGGAGUUCUACAGUCCGACGAUCUCCAGUCGACUGAGCCCUGAGGUGCAAUCCGUGGCAGAGAGCAAGGGGGACGAGGCAGAUGACGAGAGAAGCGAACUCAUCAGUGAAGGGCGGCCUGUGGAAACCGACAGCGAGAGCGAGCAACAGAGGAUUGAGCAUCA
B20: chrX:17800420:17802010:-|CDS|ENSG00000131831|control|control|control (ssRNA)
RNA: GGGAGUUCUACAGUCCGACGAUCCUUCAGGGCUAUGACAUCAACAGCCAAGGGGAAGAGUCCAUGGGAAAUGCAGAGCCCCUUAGGAAACCCAUCAAAAACCGGAGCAUAAAGUUAAAGAAAGUGAACUCCCAGGAAAUACACCAACAGAGGAUUGAGCAUCA
B21: chr11:113276847:113276948:+|3pUTR|ENSG00000149294|msi1|FALSE|unique (ssRNA)
RNA: GGGAGUUCUACAGUCCGACGAUCAGAAGGGAAAAGCCAGCCCUUUGUAUAGAAAUUUUGCUUUUUUUUCCCUCAUUCUACUUUAGAACUGCAAGCUUGUGCACUGUGGAUGCGUGAAUAUUUUAGUGUGAAACGUGUUUUUGUCAACAGAGGAUUGAGCAUCA
B22: chr14:55048714:55048815:+|3pUTR|ENSG00000180008|msi1|FALSE|bound_elsewhere (ssRNA)
RNA: GGGAGUUCUACAGUCCGACGAUCUUUCUAAUUUUGAACAGAUGACUCAGUCCUAAAUCUUUGCCUUUAUUUCCUAUAAAAUGUAGGUGAUACUUGUAACUCGACUUCCUGGAGUUAAUUCUUCAGCAAGAGGUGACCCUGGGACAACAGAGGAUUGAGCAUCA

target: T1, UNK ZnF1-6 (called full-length); experiment: nsRBNS (natural sequence RNA bind-n-seq); RBNS binding buffer (assumed for nsRBNS): 25 mM Tris pH 7.5, 150 mM KCl, 3 mM MgCl2, 0.01% Triton X-100, 500 ug/ml BSA, 20 U/ml SUPERase-In, 4 C; UNK is unkempt and MSI1 is Musashi-1; names of the RNAs are library labels; protein concentration not given here; high values mean tight binding

Q: B1 was tested. Which binding signal did it give?
A: 1.75 enrichment R

Q: B2 was tested. Which binding signal did it give?
A: 1.54 enrichment R

Q: With B3 as the binder, how does the binding signal read?
A: 0.271 enrichment R

Q: With B4 as the binder, how does the binding signal read?
A: 4.48 enrichment R

Q: B5 was tested. Which binding signal did it give?
A: 1.83 enrichment R

Q: For B6, which binding signal is on record?
A: 0.852 enrichment R

Q: With B7 as the binder, how does the binding signal read?
A: 3.03 enrichment R

Q: How did the binding signal turn out when B8 was run?
A: 0.533 enrichment R

Q: How did the binding signal turn out when B9 was run?
A: 7.59 enrichment R

Q: B10 was tested. Which binding signal did it give?
A: 0.349 enrichment R

Q: With B11 as the binder, how does the binding signal read?
A: 0.354 enrichment R

Q: Which binding signal does the source give for B12 here?
A: 0.995 enrichment R

Q: Which binding signal does the source give for B13 here?
A: 1.45 enrichment R

Q: Which binding signal does the source give for B14 here?
A: 0.457 enrichment R

Q: For B15, which binding signal is on record?
A: 9.54 enrichment R

Q: With B16 as the binder, how does the binding signal read?
A: 0.96 enrichment R

Q: With B17 as the binder, how does the binding signal read?
A: 1.51 enrichment R

Q: With B18 as the binder, how does the binding signal read?
A: 0.349 enrichment R

Q: With B19 as the binder, how does the binding signal read?
A: 0.993 enrichment R

Q: Which binding signal does the source give for B20 here?
A: 2.15 enrichment R

Q: For B21, which binding signal is on record?
A: 1.38 enrichment R

Q: With B22 as the binder, how does the binding signal read?
A: 0.29 enrichment R

— article PMC12136788
